SMILES strings stand for the structures.

The term melting point denotes the temperature of the solid-liquid transition. `CN1c2ccc(-c3ccc4ccccc4c3)cc2S(=O)c2cc(-c3ccc4ccccc4c3)ccc21` registered a melting point of 275 to 280 °C.

The values above are taken from a melting point compilation (Tetko et al.; mined from patent text by program, amines drawn as free bases though some values may be those of a salt).
